Screen size: about 45,000 compounds; about 65 (0.1%) were called active. Calls follow the shape of the dose curve; as a rule, active = well fitted activation curve with a large enough effect; inconclusive = small, poorly fitted or top-dose-only effect; inactive = no such curve, though single readings can be large or run the other way. This is one part of the list.
Each compound was assayed against Galactocerebrosidase (Homo sapiens) (UniProt P54803) (assay: A Novel Cell-Based Assay to Identify Small Molecules for B -Galactocerebrosidase). Conditions: 145M-Twi-hGALC-G270D cells (Twitcher mouse brain line with human GALC G270D), HMU-beta-Gal fluorescence, 48 h; series mostly up to 57.5 µM; activation: at the top concentration.
Chain of UniProt P54803 (P54803 whole entry, looked up): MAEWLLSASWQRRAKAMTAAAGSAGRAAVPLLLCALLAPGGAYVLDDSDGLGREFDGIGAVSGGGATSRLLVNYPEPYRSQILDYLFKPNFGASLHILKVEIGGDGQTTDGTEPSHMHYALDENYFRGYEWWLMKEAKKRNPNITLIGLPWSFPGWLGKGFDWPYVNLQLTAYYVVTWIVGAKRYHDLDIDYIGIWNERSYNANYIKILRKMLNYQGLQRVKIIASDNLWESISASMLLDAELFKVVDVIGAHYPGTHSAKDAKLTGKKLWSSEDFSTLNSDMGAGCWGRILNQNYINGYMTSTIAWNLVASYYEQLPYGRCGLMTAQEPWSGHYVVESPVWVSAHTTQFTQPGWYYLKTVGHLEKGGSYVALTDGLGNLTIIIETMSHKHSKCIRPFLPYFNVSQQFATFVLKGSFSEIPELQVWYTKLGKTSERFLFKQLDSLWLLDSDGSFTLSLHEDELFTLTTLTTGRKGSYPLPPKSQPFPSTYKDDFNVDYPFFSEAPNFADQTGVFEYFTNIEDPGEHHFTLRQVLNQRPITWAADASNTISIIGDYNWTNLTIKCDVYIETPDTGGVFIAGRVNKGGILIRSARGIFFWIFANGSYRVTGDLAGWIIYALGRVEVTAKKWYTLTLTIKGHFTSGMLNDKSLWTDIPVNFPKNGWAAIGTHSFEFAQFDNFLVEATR
How it was run: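 Mutant human GALC (G270D), stably expressed in a Twitcher mouse brain cell line lacking endogenous GALC, is measured in live-treated cells via 6-hexadecanoylamino-4-methylumbelliferyl-β-galactoside hydrolysis (0.1 mM final, pH 5.2) with fluorescent detection.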
Also: 0% is about no effect; nearly all actives have a fitted effect of over 65% in size.

activation, inactive:
CCc1nc(-c2cc(S(=O)(=O)N3CCN(c4ccccc4)CC3)ccc2OC)no1 -5.39%, Cn1c(SCC(=O)Nc2nc3ccccc3s2)ncc(C(=O)Nc2ccccc2)c1=O -14.4%, COc1ccc(C)cc1-n1cnc2cc(C(=O)NC3CCCCCC3)ccc21 -17.6%, O=C1COc2cc(S(=O)(=O)CCC(=O)NC3CCCCC3)c(Cl)cc2N1 -3.36%, Cc1ccc2onc(CNC(=O)NCc3ccc(Cl)cc3)c2c1 -11.5%, COc1ccc(-c2nc3cc(C)ccn3c2NC(=O)c2cccc(F)c2)cc1 -11.7%, Cn1c(=O)c2c(-c3ccc(Br)cc3)n(Cc3ccc(F)cc3)cc2n(C)c1=O -12.1%, O=C(O)c1c(-c2ccccc2)oc2ccc(OCc3c(F)cccc3Cl)cc12 -18.2%, O=C(NCCn1cc(SCc2ccc(Br)cc2)c2ccccc21)c1cccs1 -13.9%, COc1ccc(CCNC(=O)C2CCN(Cc3nc(-c4ccc(OC)c(OC)c4)oc3C)CC2)cc1OC -8.46%, Cc1ccc(/C=C(\C#N)C(=O)Nc2cccc(Cl)c2)o1 -13.3%, CCN(CC)C(=O)Cn1c(=O)n(CC2CCC(C(=O)NC)CC2)c(=O)c2sccc21 (configuration not stated) -7.5%, CCC1Oc2ccccc2N(CC(=O)NCc2cc(OC)ccc2OC)C1=O (configuration not stated) -14.1%, CCCC(=O)N1CCc2cc(OC)c(OC)cc2C1COc1ccc(C(=O)OC)cc1 (configuration not stated) -5.78%, CCOc1ccccc1-c1nc(Cn2c(=O)cc(C)c3c(C)nn(-c4ccccc4)c32)c(C)o1 -0.427%, O=C(CSc1nc(-c2ccccc2F)nc2cc(=O)[nH]n12)Nc1cccc(C(F)(F)F)c1 -21.6%, Cc1ccc(OCC(=O)Nc2ccc(S(=O)(=O)Nc3cc(C)on3)cc2)c(Br)c1 -16.9%, Cc1cc(C)cc(NC(=O)C2CCCN2S(=O)(=O)c2ccc3nc(-c4ccccc4)[nH]c3c2)c1 (configuration not stated) -3.65%, COC(=O)c1sc(-c2ccccc2)cc1NC(=O)Nc1ccc(F)cc1 -17.4%, COc1ccc(C(CC(=O)NCc2ccc(Cl)cc2)N2Cc3ccccc3C2=O)cc1OC (configuration not stated) -27.9%, Cc1ccc(CNC(=O)c2ccc3c(c2)N(Cc2ccccc2Cl)C(=O)CS3)cc1 -5.17%, CCOc1ccc2nc(N(Cc3cccnc3)C(=O)C3CCCCC3)sc2c1 -7.35%, Cc1ccc(-c2nnc(Nc3ccccc3)c3ccccc23)cc1S(=O)(=O)N1CCOCC1 -22.3%, Cc1ccc(C2CCN(C(=O)Nc3ccc(Cl)c(Cl)c3)C2)cc1 (configuration not stated) 3.85%, Cc1cccc(N2CCN(C(=O)c3oc(=O)c4ccccc4c3-c3ccccc3)CC2C)c1 (configuration not stated) -8.2%, Cc1oc2ncn(C)c(=O)c2c1C(=O)Nc1ccc(F)cc1 -13.8%, Cc1cc(OCC(=O)NC(Cc2c[nH]c3ccccc23)C(=O)O)ccc1Cl (configuration not stated) 4.42%, Cc1cc(N2CCN(c3ccc(F)cc3)CC2)n2nc(-c3ccc(Cl)cc3)nc2n1 -11.1%, CCc1nn(CC(=O)NCCc2ccc(Cl)cc2)c(=O)c2cc3ccccc3n12 -9.64%, CCOC(=O)c1[nH]c(C)c(CCC(=O)Nc2ccccc2C(=O)OC)c1C -6.12%, O=C1CC2(CCCC2)CC(=O)N1CCNCC1COc2ccccc2O1 (configuration not stated) -5.75%, CC(C)OCCCNC(=O)c1ccc(Cn2c(=O)c3cccn3c3cccnc32)cc1 1.29%, Cc1cccc(CSc2nc(=O)c3c(n2C)NC(=O)CC3c2cc(F)cc(F)c2)c1 (configuration not stated) -15.3%, COc1cccc(CNC(=O)c2cccc(-n3c(C)nc4cccnc43)c2C)c1 -10.9%, COc1ccc(Cn2c(CCC(=O)Nc3ccc(C)cc3C)nc3cccnc32)cc1 -15.7%, CCOC(=O)[C@H](CCc1ccccc1)N[C@@H](C)C(=O)N1CCC[C@H]1C(=O)O -7.75%, CCn1c(=O)cc(SCC(=O)NCc2ccc(Cl)cc2)c2ccccc21 -5.16%, COc1cccc(CNCc2cccn2-c2nnc(N3CCN(c4ccccc4)CC3)s2)c1 -14.7%, COc1ccc(-c2[nH]ncc2C(=O)NCc2cccc(OC)c2)cc1 -6.39%, O=C(CCn1c(=O)c2sccc2n(CC(=O)Nc2ccccc2)c1=O)NCc1ccccc1Cl -9.01%, Cc1ccsc1CN(C(=O)COc1ccc(Cl)cc1)C1CCS(=O)(=O)C1 (configuration not stated) -12.7%, CCOc1cccc2cc(-c3cn4c(n3)sc3ccccc34)c(=O)oc12 -10.9%, CC1CCN(S(=O)(=O)c2ccc3c(ccc(=O)n3CC(=O)NCc3ccccc3Cl)c2)CC1 -17.3%, Cc1ccc(CNC(=O)CSc2nnc(C)c3c(C)n(-c4ccccc4)nc23)cc1 -21.4%, Cc1ccc2c(c1)c1c(c(=O)n(-c3ccccc3C)c(=O)n1CC(=O)c1ccc(Cl)cc1)n2C -9.02%, COc1ccc(NC(=O)CSC2=Nc3ccccc3N=C(c3ccc(F)cc3)C2)cc1OC -8.66%, CCN(C(=O)CCNC(=O)Cn1cnc2ccccc2c1=O)c1cc(OC)ccc1OC -5.99%, CCCCCOc1ccc(C2SC(=O)NC2=O)cc1OCC (configuration not stated) -9.5%, CCSc1ncc(Cl)c(C(=O)Nc2nc3ccc(Cl)cc3s2)n1 -0.679%, O=C(Nc1ccc(O)c(-c2nc3ccccc3o2)c1)c1ccc(Br)cc1 -4.76%, CN(C)c1cccc(C(=O)Nc2nc3ccc(S(=O)(=O)N4CCCC4)cc3s2)c1 -31.4%, CN(C)c1ccc(CNC(=O)CN2C(=O)CSc3ccc(S(=O)(=O)N4CCCC4)cc32)cc1 -6.94%, CCC1CN(C(=O)N2CCC(C(=O)NCc3cc(OC)c(OC)c(OC)c3)CC2)c2ccccc2O1 (configuration not stated) -16.5%, O=S(=O)(c1ccc(Cl)cc1)c1nnn2c1nc(NC1CCCCC1)c1sccc12 -14%, CN(C)c1ccc(NC(=O)Cn2nnc3sc4c(c3c2=O)CCC(C(C)(C)C)C4)cc1 (configuration not stated) -13.3%, Cc1ccc(-n2c(=O)c3c(cnn3C)n(Cc3ccc(Cl)cc3)c2=O)cc1 -3.7%, Cc1cc(NC(=O)CCc2nc3cccnc3n2Cc2cccs2)ccc1Br -18.8%, Cc1cccc(NC(=O)c2oc3ccccc3c2NC(=O)c2cc(=O)c3ccc(C)cc3o2)c1 1.15%, Cc1ccc(NC(=O)Nc2c[nH]c(=O)[nH]c2=O)c(Cl)c1 -3.1%, CCOc1ccc2nc(N3CCCC(C(=O)Nc4cc(C)ccc4C)C3)sc2c1 (configuration not stated) -12.6%, Cc1ccc(NS(=O)(=O)c2cc(-c3cc(C)no3)ccc2C)c(Cl)c1 -3.57%, CC(=O)Nc1ccc(NC(=O)C2CCN(S(=O)(=O)c3ccc4c(c3)CCCC(=O)N4)CC2)cc1 -25.3%, CCc1ccccc1NC(=O)CSc1nnc(-c2ccc(OC)cc2)s1 -15.7%, CCc1ccc(NC(=O)N(Cc2c[nH]c3ccccc23)C2CCCCC2)cc1 -24.7%, CCOc1ccc(CNC(=O)c2ccc3[nH]c(C)c(C)c3c2)cc1OC -5.37%, Cc1nc2ccc(CN(C)c3ccc(C(=O)N[C@@H](CCC(=O)O)C(=O)O)s3)cc2c(=O)[nH]1 -11.2%, CCOc1cc(C(=O)Nc2ccc(NC(=O)c3cc4ccccc4o3)c(OC)c2)cc(OCC)c1OCC 4.71%, Cc1cccc(-n2c3nc(=O)n(C)c(=O)c-3cc3c(Cl)cccc32)c1C 2.15%, CCc1nc(SCC(=O)Nc2ccc(NC(C)=O)cc2)n[nH]1 -18.9%, CC(C)CCNC(=O)CSCc1cnn(-c2ccccc2)c1-n1cccc1 -9.48%, CC(C)c1cnc2c(c1SCc1cccc(C(F)(F)F)c1)c(=O)n(C)c(=O)n2C 0.778%, Cc1ccc(-n2c(=O)c3ccc(C(=O)NCc4ccco4)cc3n(Cc3cccc(Cl)c3)c2=O)cc1 -10.4%, COc1ccc(Br)cc1CNC(=O)CN1CCSc2ccccc21 -38.3%, Cc1cccn2c(=O)cc(COc3cccc(NC(=O)c4ccccc4F)c3)nc12 -9.96%, COc1ccc(NC(=O)Cn2c(=O)n(Cc3nc(-c4ccccc4)no3)c(=O)c3cc4c(cc32)OCO4)cc1Cl -12.2%, O=C(Nc1ccc(Cl)c(Cl)c1)N1CCC(c2ccccc2)C1 (configuration not stated) 4.02%, COC(=O)c1ccccc1NC(=O)Cc1noc2ccc(C)cc12 -16.2%, Cc1cccc(NC(=O)Cn2cc(C(=O)c3ccco3)c3ccccc32)c1C -8.78%, CCc1ccccc1NC(=O)Cn1nnc(C(=O)Nc2ccc(C)c(F)c2)c1N -10.5%, Cc1nn(CC(=O)NCc2ccc(OC(C)C)cc2)c(=O)c2c(C)n(-c3ccc(Cl)cc3)nc12 -9.71%, COc1ccc(CN2C(=O)C(NC(=O)c3ccccc3C)(C(F)(F)F)N=C2c2ccccc2)cc1 (configuration not stated) -10.6%, Cc1ccc2oc(-c3ccc(Cl)c(NC(=O)c4ccc(-c5ccccc5[N+](=O)[O-])o4)c3)nc2c1 -14.4%, COc1ccc2c(c1)-c1nc(NC(=O)c3ccc(Cl)cc3)sc1CC2 -31.2%, COc1ccc(CNc2ncnc3c2nnn3C)cc1 4.28%, COc1ccccc1CCNc1ncnc2c1nnn2C -1.12%, CSc1ccc(CCNC(=O)Cn2ncc3c(=O)oc4ccc(C)cc4c32)cc1 -11.3%, CCCCCOc1ccc(C2c3c(oc4ccccc4c3=O)C(=O)N2c2nc(C)c(C)s2)cc1OCC (configuration not stated) -10.9%, O=C(CSc1nc2c([nH]c3ccccc32)c(=O)n1-c1ccccc1)N1CCCC1 4.11%, O=C(Nc1ccc(O)cc1)c1cccc(S(=O)(=O)N2CCOCC2)c1 -1.71%, O=C(O)c1cn(C2CC2)c2cc(Cl)c(F)cc2c1=O -4.23%, Cn1nc(C(=O)N2CCN(c3ccccc3)CC2)c2c1-c1ccccc1S(=O)(=O)C2 -12.2%, COc1ccc(C)cc1NC(=O)c1ccc2c(Cl)c3c(nc2c1)CCC3 -11.5%, COc1ccc(S(=O)(=O)c2c(SC)nn(Cc3ccccc3C)c2NC(C)=O)cc1 -19.9%, CCCC(=O)N1c2nc(C(C)C)nn2C2(CCCCC2)[C@@H]2CCCC[C@@H]21 -6.91%, CCCCn1c(=O)c2oc3ccccc3c2n(CC(=O)Nc2cccc(Cl)c2)c1=O -13.2%, CCCCc1nn2c(=O)cc(COC(=O)c3ccccc3NC(=O)c3ccccc3OC)nc2s1 -11.6%, COc1cccc(NS(=O)(=O)c2ccc3[nH]cc(C(=O)N(C)C4CCCCC4)c(=O)c3c2)c1 -3.32%
